Assay results from a collection of fitness landscapes (doi:10.1126/science.1257360).
The list shows a part of the results.

B1: PhoQ; a variant is named by its letters at X, in order, P23837 (parent)
chain: MKKLLRLFFPLSLRVRFLLATAAVVLVLSLAYGMVALIGYSVSFDKTTFRLLRGESNLFYTLAKWENNKLHVELPENIDKQSPTMTLIYDENGQLLWAQRDVPWLMKMIQPDWLKSNGFHEIEADVNDTSLLLSGDHSIQQQLQEVREDDDDAEMTHSVAVNVYPATSRMPKLTIVVVDTIPVELKSSYMVWSWFIYVLSANLLLVIPLLWVAAWWSLRPIEALAKEVRELEEHNRELLNPATTRELTSLVRNLNRLLKSERERYDKYRTTLTDLTHSLKTPLXXLQXXLRSLRSEKMSVSDAEPVMLEQISRISQQIGYYLHRASMRGGTLLSRELHPVAPLLDNLTSALNKVYQRKGVNISLDISPEISFVGEQNDFVEVMGNVLDNACKYCLEFVEISARQTDEHLYIVVEDDGPGIPLSKREVIFDRGQRVDTLRPGQGVGLAVAREITEQYEGKIVAGESMLGGARMEVIFGRQHSAPKDE

Variants of: B1
Test: enrichment ratio after two sorts for PhoP signalling (ratio (wild type AVST 3.29)); higher = more functional
Conditions: with PhoP (E. coli)

| Variant | enrichment ratio |
| --- | --- |
| TLKV | 48.4 |
| QYPM | ≤ 0.25 |
| NDCR | ≤ 0.25 |
| MMFG | ≤ 0.25 |
| AQCQ | 31.6 |
| FPRI | ≤ 0.25 |
| IMYN | ≤ 0.25 |
| YCWE | ≤ 0.25 |
| FSWF | 0.273 |
| MNSE | ≤ 0.25 |
| MQQV | ≤ 0.25 |
| RCYN | ≤ 0.25 |
| LWMC | ≤ 0.25 |
| VQLP | ≤ 0.25 |
| DNDP | ≤ 0.25 |
| ELHT | ≤ 0.25 |
| MINF | ≤ 0.25 |
| FCSC | ≤ 0.25 |
| DCVW | ≤ 0.25 |
| NGWI | ≤ 0.25 |
| WICK | ≤ 0.25 |
| WSLA | ≤ 0.25 |
| PHIH | ≤ 0.25 |
| TRLL | 9.72 |

| Variant | enrichment ratio |
| --- | --- |
| SCAW | 1.61 |
| VFCV | ≤ 0.25 |
| AVLD | ≤ 0.25 |
| YFMG | ≤ 0.25 |
| DMDC | ≤ 0.25 |
| WCCK | ≤ 0.25 |
| DSRV | ≤ 0.25 |
| VNCS | ≤ 0.25 |
| FDNI | ≤ 0.25 |
| VRLV | ≤ 0.25 |
| THGC | 5.27 |
| RNQY | ≤ 0.25 |
| HIFI | ≤ 0.25 |
| QDLS | ≤ 0.25 |
| QFSQ | ≤ 0.25 |
| NRGW | ≤ 0.25 |
| MSHQ | 12 |
| HRLG | ≤ 0.25 |
| HSRN | ≤ 0.25 |
| PMIY | ≤ 0.25 |
| TLEP | ≤ 0.25 |
| SQNN | 1.32 |
| NGVY | ≤ 0.25 |
| RCVY | ≤ 0.25 |

| Variant | enrichment ratio |
| --- | --- |
| WVCL | ≤ 0.25 |
| MYLY | ≤ 0.25 |
| KGSA | ≤ 0.25 |
| HNHY | ≤ 0.25 |
| DTVK | ≤ 0.25 |
| TYKF | ≤ 0.25 |
| WQAI | ≤ 0.25 |
| MFRG | ≤ 0.25 |
| YLDH | ≤ 0.25 |
| TNSM | 23.5 |
| KQDV | ≤ 0.25 |
| DGRN | ≤ 0.25 |
| YEIL | ≤ 0.25 |
| EFPH | ≤ 0.25 |
| PQIV | ≤ 0.25 |
| AAMP | ≤ 0.25 |
| FSYI | 1.45 |
| TGQL | 5.01 |
| FAMG | 2.98 |
| CRWA | ≤ 0.25 |
| PTYI | ≤ 0.25 |
| RMYE | ≤ 0.25 |
| QPGT | ≤ 0.25 |
| RYCP | ≤ 0.25 |

| Variant | enrichment ratio |
| --- | --- |
| MDQH | ≤ 0.25 |
| RHLF | ≤ 0.25 |
| NNQR | ≤ 0.25 |
| IVRN | ≤ 0.25 |
| MCSQ | 11.6 |
| HGAW | ≤ 0.25 |
| LYFA | ≤ 0.25 |
| RHFP | ≤ 0.25 |
| NRLR | ≤ 0.25 |
| QHGL | ≤ 0.25 |
| IFEI | ≤ 0.25 |
| TPKD | ≤ 0.25 |
| QWCL | ≤ 0.25 |
| NEWH | ≤ 0.25 |
| LTYG | ≤ 0.25 |
| YVCQ | 0.277 |
| NGNC | ≤ 0.25 |
| SQED | ≤ 0.25 |
| GDWF | ≤ 0.25 |
| VGFQ | ≤ 0.25 |
| NHVE | ≤ 0.25 |
| GNEG | ≤ 0.25 |
| PLCT | ≤ 0.25 |
| FEGI | ≤ 0.25 |

| Variant | enrichment ratio |
| --- | --- |
| MPIV | ≤ 0.25 |
| IRTT | ≤ 0.25 |
| ESAW | ≤ 0.25 |
| MDRA | ≤ 0.25 |
| GGWS | ≤ 0.25 |
| DCGK | ≤ 0.25 |
| ANHS | ≤ 0.25 |
| QDKM | ≤ 0.25 |
| THKC | ≤ 0.25 |
| YHWG | ≤ 0.25 |
| WARE | ≤ 0.25 |
| WKYP | ≤ 0.25 |
| PTWM | ≤ 0.25 |
| QSHT | ≤ 0.25 |
| SNYA | ≤ 0.25 |
| HDVR | ≤ 0.25 |
| INWQ | ≤ 0.25 |
| KNHK | ≤ 0.25 |
| NMIQ | ≤ 0.25 |
| RWDV | ≤ 0.25 |
| RANL | ≤ 0.25 |
| FRLQ | ≤ 0.25 |
| SGGE | ≤ 0.25 |
| IIGD | ≤ 0.25 |

| Variant | enrichment ratio |
| --- | --- |
| QCDR | ≤ 0.25 |
| MQIT | ≤ 0.25 |
| TEYF | 2.14 |
| QSCA | ≤ 0.25 |
| KEPL | ≤ 0.25 |
| GNQI | ≤ 0.25 |
| SISR | 6.33 |
| THKK | ≤ 0.25 |
| GPFP | ≤ 0.25 |
| WMGC | ≤ 0.25 |
| AMPY | ≤ 0.25 |
| ILVM | ≤ 0.25 |
| MSGR | ≤ 0.25 |
| PPVW | ≤ 0.25 |
| DIRN | ≤ 0.25 |
| QVNG | 7.72 |
| IQSD | ≤ 0.25 |
| MNEL | ≤ 0.25 |
| DTQW | ≤ 0.25 |
| NCMY | ≤ 0.25 |
| SGFV | 0.722 |
| DVPR | ≤ 0.25 |
| RRHI | ≤ 0.25 |
| KYIM | ≤ 0.25 |

| Variant | enrichment ratio |
| --- | --- |
| LLWW | ≤ 0.25 |
| TQGP | ≤ 0.25 |
| MQQR | ≤ 0.25 |
| IMTQ | ≤ 0.25 |
| VFLD | ≤ 0.25 |
| VSCL | 7.25 |
| SPLD | ≤ 0.25 |
| EPPW | ≤ 0.25 |
| RMPI | ≤ 0.25 |
| EMSL | ≤ 0.25 |
| VMDE | ≤ 0.25 |
| VAWA | ≤ 0.25 |
| PRNH | ≤ 0.25 |
| YFWL | ≤ 0.25 |
| QFMM | ≤ 0.25 |
| LQEG | ≤ 0.25 |
| ECVT | ≤ 0.25 |
| YRWQ | ≤ 0.25 |
| VYAM | ≤ 0.25 |
| LTNA | ≤ 0.25 |
| KCAM | ≤ 0.25 |
| NYNP | ≤ 0.25 |
| DKSA | ≤ 0.25 |
| NTWL | ≤ 0.25 |

| Variant | enrichment ratio |
| --- | --- |
| ALRL | ≤ 0.25 |
| AYWK | ≤ 0.25 |
| IDEV | ≤ 0.25 |
| LMSK | ≤ 0.25 |
| GRPL | ≤ 0.25 |
| TLAS | 3.83 |
| YMTD | ≤ 0.25 |
| KTLF | ≤ 0.25 |
| RKPA | ≤ 0.25 |
| HLDL | ≤ 0.25 |
| KFMY | ≤ 0.25 |
| TDGQ | ≤ 0.25 |
| LHPD | ≤ 0.25 |
| RNQK | ≤ 0.25 |
| QHCG | ≤ 0.25 |
| MKPK | ≤ 0.25 |
| HAEF | ≤ 0.25 |
| GWNA | ≤ 0.25 |
| MCMY | ≤ 0.25 |
| YDDW | ≤ 0.25 |
| KTYA | ≤ 0.25 |
| WDAA | ≤ 0.25 |
| TTNG | 1.71 |
| AHGH | ≤ 0.25 |

| Variant | enrichment ratio |
| --- | --- |
| DRIF | ≤ 0.25 |
| CFSY | ≤ 0.25 |
| IHIG | ≤ 0.25 |
| WTFY | ≤ 0.25 |
| KEFI | ≤ 0.25 |
| PGAC | ≤ 0.25 |
| ELYY | ≤ 0.25 |
| SAAC | 1.38 |
| HALA | ≤ 0.25 |
| FGGS | ≤ 0.25 |
| SAAH | 9.48 |
| VVVW | ≤ 0.25 |
| STIF | 4.5 |
| FREK | ≤ 0.25 |
| YHKG | ≤ 0.25 |
| AKCV | 3.07 |
| NHNW | ≤ 0.25 |
| DWPG | ≤ 0.25 |
| MNME | ≤ 0.25 |
| AIFC | ≤ 0.25 |
| AFCV | ≤ 0.25 |
| KMAN | ≤ 0.25 |
| STDR | ≤ 0.25 |
| DCSP | ≤ 0.25 |

| Variant | enrichment ratio |
| --- | --- |
| PNVC | 2.08 |
| QPSF | ≤ 0.25 |
| AFLL | 1.68 |
| GHSA | ≤ 0.25 |
| FNNV | ≤ 0.25 |
| YNDN | ≤ 0.25 |
| VIHS | ≤ 0.25 |
| RSDW | ≤ 0.25 |
| VMNG | ≤ 0.25 |
| TKTL | 16 |
| EKLG | ≤ 0.25 |
| NLDI | ≤ 0.25 |
| PRRA | ≤ 0.25 |
| PWCS | ≤ 0.25 |
| YHCC | ≤ 0.25 |
| FAAG | ≤ 0.25 |
| MAEA | ≤ 0.25 |
| GVRF | ≤ 0.25 |
| IYCS | ≤ 0.25 |
| QFDL | ≤ 0.25 |
| DHCG | ≤ 0.25 |
| NKMG | ≤ 0.25 |
| HTKE | ≤ 0.25 |
| DLAL | ≤ 0.25 |

| Variant | enrichment ratio |
| --- | --- |
| HQLR | ≤ 0.25 |
| FAHQ | ≤ 0.25 |
| PVQP | ≤ 0.25 |
| NRFG | ≤ 0.25 |
| NHDD | ≤ 0.25 |
| SIEN | ≤ 0.25 |
| AVCN | 6 |
| GHIQ | ≤ 0.25 |
| REWT | ≤ 0.25 |
| TLPY | ≤ 0.25 |
| YACA | ≤ 0.25 |
| KYDI | ≤ 0.25 |
| DRHN | ≤ 0.25 |
| SFPN | ≤ 0.25 |
| WPDY | ≤ 0.25 |
| FGNC | ≤ 0.25 |
| AGYF | ≤ 0.25 |
| ECLR | ≤ 0.25 |
| GGQV | ≤ 0.25 |
| TVDA | ≤ 0.25 |
| QVRY | ≤ 0.25 |
| GTSS | 1.17 |
| IPKL | ≤ 0.25 |
| EERS | ≤ 0.25 |

| Variant | enrichment ratio |
| --- | --- |
| GAMQ | ≤ 0.25 |
| ATRL | ≤ 0.25 |
| VFVW | ≤ 0.25 |
| RSVL | ≤ 0.25 |
| HTTT | ≤ 0.25 |
| ARIG | ≤ 0.25 |
| MEVC | ≤ 0.25 |
| IDGL | ≤ 0.25 |
| VKNG | ≤ 0.25 |
| YHRI | ≤ 0.25 |
| GKYA | ≤ 0.25 |
| KLVF | ≤ 0.25 |
| MWDE | ≤ 0.25 |
| RRFV | ≤ 0.25 |
| NCMN | ≤ 0.25 |
| PGPY | ≤ 0.25 |
| RFFQ | ≤ 0.25 |
| SCVA | 4.93 |
| RLSP | ≤ 0.25 |
| SESP | ≤ 0.25 |
| MSFW | ≤ 0.25 |
| MCPP | ≤ 0.25 |
| QWLF | ≤ 0.25 |
| GSGN | ≤ 0.25 |

| Variant | enrichment ratio |
| --- | --- |
| HYTF | ≤ 0.25 |
| YYTV | ≤ 0.25 |
| PQPA | ≤ 0.25 |
| ITYG | ≤ 0.25 |
| AICA | 3.23 |
| TEVN | 9.1 |
| QGIA | ≤ 0.25 |
| PIMQ | ≤ 0.25 |
| WGSY | ≤ 0.25 |
| TCDP | ≤ 0.25 |
| DFLV | ≤ 0.25 |
| VAVL | ≤ 0.25 |
| YHMQ | 0.346 |
| EKDR | ≤ 0.25 |
| IYMK | ≤ 0.25 |
| WTMI | ≤ 0.25 |
| RGRH | ≤ 0.25 |
| DKWW | ≤ 0.25 |
